# Measured values published in PubChem BioAssay AID686978 (National Center for Advancing Translational Sciences (NCATS), 2013).
# Screen size: about 420,000 compounds; about 64,000 (15%) were called active. The inconclusive results got no clear call from the source; some entries with a clear call stand among them for comparison. Calls come from the whole dose curve; as a rule, active = well fitted inhibition curve with a large enough effect; inconclusive = small, poorly fitted or top-dose-only effect; inactive = flat fitted curve, though single readings scatter. Potencies of inconclusive entries are left out as doubtful fits.
# Experiment: qHTS for Inhibitors of human tyrosyl-DNA phosphodiesterase 1 (TDP1): qHTS in cells in absence of CPT; note: nearly all actives have a fitted effect of over 55% in size
# Conditions: DT40 Tdp1-/- hTDP1 cells, no CPT, ATP luminescence, 48 h; activity change, negative = growth inhibition: at 46.2 µM (top of the series)
# In short: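 Growth of hTDP1-complemented DT40 Tdp1-knockout cells is measured by ATP luminescence after at least 48 hr compound exposure at 37 °C, with DMSO substituting for the 20 nM CPT used in the parallel screen.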
# % is set by controls: 0 for no effect and ±100 for the full control effect; potency is the fitted concentration of half-maximal effect; tags give direction and shape of the fitted curve.
SMILES,Potency,"activity change, negative = growth inhibition"
CC(C)c1ccc(-c2nc(N3CCCCCC3)nc3n[nH]c(N)c23)cc1,"inconclusive [inhibitor, single point]",
Cc1nn(CC(=O)Nc2ccc3c(c2)oc2ccccc23)c(=O)c2ccccc12,"inconclusive [inhibitor, single point]",
COCCNc1ccc(-c2n[nH]c(=O)c3ccccc23)cc1[N+](=O)[O-],"inconclusive [inhibitor, single point]",
CC(=O)Nc1cccc(NC(=O)CSc2nc(=O)n(Cc3ccncc3)c3c2CCC3)c1,inactive,
Clc1ccccc1-c1cnc2sc(NCc3ccc4c(c3)OCO4)nn12,active: 14.6 µM,
COC(=O)C1=C(C)N(c2cccc(C)c2)C(=O)/C1=C\c1cccs1,"inconclusive [inhibitor, partial curve]",
CCCCC(=O)N(Cc1ccc(-c2ccccc2-c2nn[nH]n2)cc1)[C@@H](C(=O)O)C(C)C,inactive,
O=C(NCCc1ccccc1)c1cc(Sc2cccc(Cl)c2)nc2ccccc12,active: 16.4 µM,
CN1c2ccsc2/C(=N/Nc2ccc(F)cc2)CS1(=O)=O,active: 2.59 µM,
CCCCCn1c(-c2ccc(OC)c(OC)c2)nc2ccccc21,active: 7.31 µM,
O=C(O)c1cccnc1SC1CC(=O)N(CCc2ccccc2)C1=O (centres undefined),inactive,
O=[N+]([O-])c1cc(S(=O)(=O)N2CCCC2)ccc1NCCc1ccccc1,"inconclusive [inhibitor, single point]",
CN(C)S(=O)(=O)c1cccc(N=c2scc(-c3ccc4c(c3)NC(=O)CO4)n2CC2CCCO2)c1 (centres undefined),active: 7.31 µM,
COC(=O)c1ccc2cc(OC)c(OC)cc2c1,"inconclusive [inhibitor, single point]",
Cc1ccc(Cl)cc1N1CCN(S(=O)(=O)c2ccc3c(c2)CCCN3C(=O)C2CCC2)CC1,"inconclusive [inhibitor, single point]",
OCCc1ccc(-c2ccc(Cl)cc2)o1,inactive,
CCOc1ccccc1CN1CCNC(=O)C1CC(=O)N(C)CCc1cnn(C)c1 (centres undefined),inactive,
COc1cc(OC)c(NC(=O)Cn2c(=O)oc3cc(S(=O)(=O)N4CCCC4)ccc32)cc1Cl,active: 18.4 µM,
CC(C)Oc1ccc(F)cc1-c1cc(C(=O)Nc2ccccc2)[nH]n1,"inconclusive [inhibitor, single point]",
Cc1ccc(CN2C(=O)c3oc4ccc(C)cc4c(=O)c3C2c2ccc(O)cc2)cc1 (centres undefined),"inconclusive [inhibitor, partial curve]",
COc1ccc(CCN2C(=O)CS/C2=N/NC(=O)c2ccccc2F)cc1OC,,inconclusive: -31% [inhibitor]
c1ccc(-c2ccc(CN3C[C@@H]4C(c5ccccc5)C5(c6cccnc6)CC4(C5)[C@H]3c3ccccc3)cc2)cc1 (some centres undefined),"inconclusive [inhibitor, single point]",

SMILES,Potency,"activity change, negative = growth inhibition"
COc1ccc(NS(=O)(=O)c2ccc3[nH]c4c(c3c2)CCCC4)cc1Cl,"inconclusive [inhibitor, single point]",
Cc1nn(-c2ccc([N+](=O)[O-])cc2)c2c1C(c1ccc(OC(F)F)cc1)N1C(=N2)C(=O)Nc2ccccc21 (centres undefined),active: 4.61 µM,
COc1ccccc1OCC(=O)Nc1ccc(N2CCCCC2)cc1,inactive,
COc1ccc(-c2n[nH]c(=S)n2-c2ccc(C)cc2C)cc1,"inconclusive [inhibitor, single point]",
CN1C(=O)c2ccccc2Sc2ccc(NC(=O)c3ccccc3F)cc21,active: 14.6 µM,
COc1ccc(-c2cc(C(=O)N3CCCCCC3)c3cc(C)ccc3n2)cc1,"inconclusive [inhibitor, single point]",
CCCCc1c(-c2ccccc2OC)ncn1CCc1cccc(OC)c1,active: 18.4 µM,
C=CCOc1ccc(CN(C)c2ccc(S(=O)(=O)N3CCN(C)CC3)cc2[N+](=O)[O-])cc1,"inconclusive [inhibitor, single point]",
CCC(c1nnnn1C(C)(C)CC)N1CCN(c2ccccc2F)CC1 (centres undefined),"inconclusive [inhibitor, partial curve]",
O=C(Cn1c(C(=O)NCc2ccco2)cc2sccc21)c1ccccc1,"inconclusive [inhibitor, single point]",
Cc1cnc(NC(=O)CSc2nnc(Cc3ccccc3)o2)s1,"inconclusive [inhibitor, single point]",
NC(=O)c1ccsc1NC(=O)COC(=O)CCOc1ccccc1,"inconclusive [inhibitor, single point]",
O=C(COC(=O)C(O)C(O)C(=O)OCC(=O)c1ccc(C(F)(F)F)cc1)c1ccc(C(F)(F)F)cc1 (centres undefined),inactive,
CCOC(=O)[C@H]1[C@H]2COc3ccc(OC)cc3[C@@H]2N2C(=O)CN(Cc3ccc(F)cc3)C(=O)[C@@]12C,"inconclusive [inhibitor, single point]",
Brc1ccc2oc3c(N4CCOCC4)ncnc3c2c1,active: 11.6 µM,
CCc1cccc(CC)c1NC(=O)c1cc(CN2C(=O)c3ccccc3C2=O)ccc1OC,"inconclusive [inhibitor, single point]",
CC(C)CC1c2[nH]c3ccccc3c2CCN1CCCn1cccn1 (centres undefined),"inconclusive [inhibitor, single point]",
Cc1ccc(S(=O)(=O)N2CCOCC2)cc1C(=O)OCC(=O)Nc1ccc2[nH]c(=O)[nH]c2c1,inactive,
CCOC(=O)c1c(NC(=O)c2cccs2)sc(C(=O)N2CCOCC2)c1C,"inconclusive [inhibitor, single point]",
CS(=O)(=O)N(CC(=O)N1CCN(c2ccccc2)CC1)c1cccc(Br)c1,"inconclusive [inhibitor, single point]",
CCOC(=O)c1cccc(NC(=O)[C@@H](c2ccccc2)N2Cc3ccccc3C2=O)c1,"inconclusive [inhibitor, single point]",
Cc1ccc2c(c1)C1CN(C)CCC1N2S(=O)(=O)c1cccc(F)c1 (centres undefined),"inconclusive [inhibitor, single point]",
